# From paper PMC4336329 (PLoS ONE, 2015)
# Among all 310,000 compounds or so, about 14,000 (4.5%) showed an effect of 50% or more. Effects have a minus sign here. The list shows a part of the results.
# Target: human ether-à-go-go-related gene (hERG) potassium channel (human, UniProt Q12809)
# Assay: primary screen, population patch clamp on CHO cells stably expressing hERG
# 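Further: peak tail current of the secondary pulse compared with the same well before compound.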
# Sequence of human ether-à-go-go-related gene (hERG) potassium channel (Q12809 whole entry, looked up): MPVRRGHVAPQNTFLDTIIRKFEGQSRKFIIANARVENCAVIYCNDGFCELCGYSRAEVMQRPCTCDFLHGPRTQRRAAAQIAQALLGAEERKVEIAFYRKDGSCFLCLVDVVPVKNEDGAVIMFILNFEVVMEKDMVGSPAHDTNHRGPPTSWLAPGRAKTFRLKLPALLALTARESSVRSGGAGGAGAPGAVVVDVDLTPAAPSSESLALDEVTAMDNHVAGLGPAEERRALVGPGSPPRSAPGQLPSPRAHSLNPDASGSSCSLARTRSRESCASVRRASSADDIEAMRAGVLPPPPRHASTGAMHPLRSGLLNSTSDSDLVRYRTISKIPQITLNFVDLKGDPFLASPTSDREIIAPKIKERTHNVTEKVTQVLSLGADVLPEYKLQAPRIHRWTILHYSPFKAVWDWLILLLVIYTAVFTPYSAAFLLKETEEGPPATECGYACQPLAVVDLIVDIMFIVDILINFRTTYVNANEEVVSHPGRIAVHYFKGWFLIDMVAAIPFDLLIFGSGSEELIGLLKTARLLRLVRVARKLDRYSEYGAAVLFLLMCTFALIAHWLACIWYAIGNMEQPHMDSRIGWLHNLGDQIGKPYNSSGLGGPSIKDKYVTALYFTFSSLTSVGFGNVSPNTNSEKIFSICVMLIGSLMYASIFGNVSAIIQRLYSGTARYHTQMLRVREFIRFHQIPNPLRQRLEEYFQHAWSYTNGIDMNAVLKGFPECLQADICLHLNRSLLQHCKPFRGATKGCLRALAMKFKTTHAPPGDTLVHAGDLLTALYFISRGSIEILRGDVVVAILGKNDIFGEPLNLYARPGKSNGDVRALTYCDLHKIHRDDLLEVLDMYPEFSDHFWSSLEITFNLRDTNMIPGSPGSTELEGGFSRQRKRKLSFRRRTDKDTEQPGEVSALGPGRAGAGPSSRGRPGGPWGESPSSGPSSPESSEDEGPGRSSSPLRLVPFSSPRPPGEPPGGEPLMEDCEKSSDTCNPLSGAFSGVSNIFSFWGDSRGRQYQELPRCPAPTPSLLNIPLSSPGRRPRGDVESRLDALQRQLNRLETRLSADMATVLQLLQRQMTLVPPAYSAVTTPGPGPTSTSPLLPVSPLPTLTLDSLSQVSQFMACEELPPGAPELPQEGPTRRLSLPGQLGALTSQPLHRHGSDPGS
row,SMILES,"hERG current change (%, negative = inhibition) at 10uM [%]"
1,NS(=O)(=O)c1ccc(N/C=C\C(=O)c2cccc3ccccc23)cc1,-11.2
2,COC(=O)c1ccc(C23CC4(C2)[C@H](CN(CC2CCCCC2)[C@@H]4c2ccccc2)C3c2ccccc2)cc1 (some centres unmarked),6.05
3,CC1C=Cc2ccccc2N1C(=O)c1ccccc1 (centres unmarked),-16
4,COc1ccc(-c2ccnc(SCC(=O)c3ccc(Cl)cc3)n2)cc1,21.9
5,Cc1cccc(N2CCN(C(=O)c3cccc(NC4=NC5CS(=O)(=O)CC5S4)c3)CC2)c1C (centres unmarked),0.879
6,O=[N+]([O-])c1ccc(O)c(/C=N/n2cnnc2)c1,-5.11
7,Cc1cc(C2N=C(N)Nc3nc4ccccc4n32)c(C)n1-c1ccccc1Cl (centres unmarked),4.77
8,O=C(N/N=C\c1coc2ccccc2c1=O)c1ccco1,6.25
9,Cc1ccc(-c2nnc(NC(=O)c3ccc([N+](=O)[O-])o3)o2)c(C)c1,-13.3
10,COc1ccc(S(=O)(=O)Nc2cccc(-c3ccc4nncn4n3)c2)cc1F,9.83
11,COc1ccccc1/C=C1\SC(=S)N(NS(=O)(=O)c2ccc(C)cc2)C1=O,-8.24
12,N#Cc1ccc(OCC(=O)N/N=C(\CCC(=O)O)c2cccs2)cc1,12.8
13,NC(=O)CSc1n[nH]c(-c2ccco2)n1,24
14,CC(C)CC(=O)Nc1ccc(Cc2ccncc2)cc1,10.1
15,CCC(=O)NC(c1cc(Cl)c2ccccc2c1O)C(C)C (centres unmarked),4.25
16,CCCC/C(C)=N\NC(=O)CNS(=O)(=O)c1ccc([N+](=O)[O-])cc1,-2.14
17,COc1ccc(OCC(=O)Nn2c(-c3ccc(C)cc3)nc3ccccc3c2=O)cc1,8.87
18,Cc1ccc(C(=O)Oc2ccc(N3C(=O)CCC3=O)c(C)c2)cc1,2.87
19,CC(=O)c1cccc(CN2CCC(CO)(CCOc3ccccc3)CC2)c1,-41.5
20,CCOc1ccc(S(=O)(=O)Nc2ccccn2)c2ccccc12,10.7
21,CCN(CC)Cc1nc2c(c(=O)[nH]1)C1(CCCC1)Cc1ccccc1-2,-14.5
22,CCOC(=O)/C=C/C(=O)OCC(=O)Nc1ccc(OC)c(Cl)c1,6.24

row,SMILES,"hERG current change (%, negative = inhibition) at 10uM [%]"
1,O=C(Nc1ccccc1)n1ccc(-c2ccc(-n3ccnc3)cc2)n1,17.1
2,COc1cc(/C=C2\SC(=S)N(CC(=O)O)C2=O)ccc1OS(=O)(=O)c1ccc(C)cc1,13.7
3,CC1C/C(=C\c2cccnc2)C(=O)/C(=C/c2cccnc2)C1 (centres unmarked),-63.1
4,CCCCN(CCCC)CCNC(=O)CN1C(=O)CSc2ccc(S(=O)(=O)N3CCCCC3)cc21,-74.7
5,COc1cc(/C=C/c2ccc3cccc(O)c3n2)c(Br)cc1O,21.3
6,CCOC(=O)c1c(NC(=O)Nc2ccccc2)sc(C)c1C,3.63
7,NC(=O)c1cc(S(=O)(=O)N2CCN(c3cccc(Cl)c3)CC2)cs1,28.1
8,CCOC(=O)Nc1nc(-c2ccc(Cl)cc2Cl)cs1,11.7
9,S=C(NCC1COc2ccccc2O1)Nc1ccccc1 (centres unmarked),2.3
10,COCCn1c(SCC(=O)Nc2ccc(F)cc2)nc2c([nH]c3ccccc32)c1=O,0.692
11,CCCN(CCC)Cc1c(C(=O)OCC)nnn1-c1nonc1N,-12.7
12,O=C(N/N=C/c1cccs1)c1ccc2c(c1)OCO2,-14.3
13,Oc1ccc2ccccc2c1C=Nc1ccc(Cl)cn1,0.0628
14,Cc1cc(-c2ccccc2)nc(N/N=C/c2ccco2)n1,-0.804
15,COc1cc([C@H]2Oc3c(OC)cc(CCCO[C@@H]4O[C@H](CO)[C@@H](O)[C@H](O)[C@H]4O)cc3[C@@H]2CO)ccc1O,0.467
16,CN1CCN(Cc2nc3c([nH]2)c(=O)[nH]c(=O)n3C)CC1,-10.6
17,COc1ccccc1NC(=O)C1CCN(S(=O)(=O)c2cccs2)CC1,-7.13
18,CCN(C(=O)COC(=O)c1oc2ccc(OC)cc2c1C)C1CCCCC1,-4.08
19,CC(C)OC(=O)c1cc2c(ccn2-c2ccc(F)cc2)n1CC(=O)N1CCN(C(=O)c2ccco2)CC1,-69.2
20,CCOC(=O)c1c(-c2ccc(C)cc2)csc1NC(=O)C1CC=CCC1C(=O)O (centres unmarked),-10.3
21,CCOC(=O)c1ccc2c(c1)nc(-c1ccccn1)n2CC,15.5
22,COc1cccc(/C=C/c2n[nH]c(=O)c(C#N)c2C)c1,14.6

row,SMILES,"hERG current change (%, negative = inhibition) at 10uM [%]"
1,Cc1ccc(-c2nc3c(c(SCC(=O)N4CCOCC4)n2)Cc2c(CO)cnc(C)c2O3)cc1,3.93
2,Cc1ccc(-c2nnc(Cc3ccc(Cl)cc3)o2)cc1,8.63
3,CCN(CC(=O)Nc1ccc(Cl)c(S(=O)(=O)N(C)C)c1)Cc1nc2ccccc2c(=O)[nH]1,-34.5
4,O=C(Nc1cccnc1)c1cc(-c2ccccc2)on1,5.06
5,O=C(NN1C(=O)c2ccccc2NC1c1ccco1)c1ccccc1 (centres unmarked),-0.469
6,CCOC(=O)CC1C(=O)NCCN1S(=O)(=O)c1ccc(OC)cc1 (centres unmarked),6.63
7,N/C(=N\OC(=O)c1ccccc1Cl)c1cccc([N+](=O)[O-])c1,10.2
8,CCCc1cc(C(=O)Nc2cc(OC)ccc2OC)cs1,7.15
9,O=C(O)c1ccc(/C=N/NC(=O)c2ccc(F)cc2)cc1,17.9
10,N#C/C(=C\c1cn(-c2ccccc2)nc1-c1cccnc1)c1nnc2n1CCCCC2,-63.2
11,COc1ccc(-c2cccc(C3CC=CC4C3C(=O)N(Cc3ccccc3)C4c3ccc(C(F)(F)F)cc3)c2)cc1 (centres unmarked),15.8
12,FC(F)(F)c1nc2ccccc2nc1N/N=C/c1ccc(Cl)cc1,10.2
13,CSCCC(NC(=O)c1ccc([N+](=O)[O-])cc1Cl)C(=O)OC(C)C(=O)NCc1ccco1 (centres unmarked),-61.7
14,Cc1nc(NCC2CCCO2)c2oc3ccccc3c2n1 (centres unmarked),-0.928
15,CS(=O)(=O)c1ccc(-c2nnn(CC(N)=O)n2)cc1,27.7
16,Cc1ccc(C(=O)Nc2ccc3c(c2)OCCO3)o1,2.93
17,O=C(CCCOc1ccc(Cl)cc1Cl)N/N=C\C1CCCCC1,14.4
18,Cc1ccc(-c2cnc(-c3ccccc3C(=O)O)o2)cc1,32.7
19,Cc1nccn1CCCNC(=O)CC1C(=O)NCCN1Cc1ccc(Cl)c(F)c1 (centres unmarked),18.4
20,Cc1ccc(S(=O)(=O)n2ccc(=O)[nH]2)cc1,0.963
21,Cc1ccc(NC(=O)COc2ccc(/C=C3/SC(=Nc4ccccc4)N(Cc4cccnc4)C3=O)cc2)cc1,0.975
22,O=C(COc1ccc(S(=O)(=O)N2CCCC2)cc1Cl)NCc1cccnc1,-55

row,SMILES,"hERG current change (%, negative = inhibition) at 10uM [%]"
1,Cc1[nH]c2ccccc2c1C(=O)C(=O)NCCc1ccc(S(N)(=O)=O)cc1,5.07
2,COCCCC1CCN(C(=O)c2cc(COc3cc(C)ccc3C)on2)CC1,-33.3
3,CCN(CC)CC(O)Cn1c(C)c(-c2ccccc2)c2cc([N+](=O)[O-])ccc21.Cl (centres unmarked),-65.3
4,Cc1cccc(C)c1NC(=O)COC(=O)c1nonc1N,9.71
5,COC(=O)c1c(NC(=O)CSc2nnnn2C)sc(C)c1C,-9.25
6,Fc1ccc(Oc2nc(-c3ccccc3)nnc2C(F)(F)F)cc1,5.71
7,O=C(O)CC(C(=O)OC1CCCCC1)N1CCOCC1 (centres unmarked),20.1
8,COc1cc(-c2nc(-c3cccc(C)c3)no2)cc(OC)c1OC,0.668
9,NC(=O)c1cccnc1Oc1ccccc1,-30.8
10,CC(C)(C)c1[nH]nc2c1C(C1C=CCCC1)C(C#N)=C(N)O2 (centres unmarked),-11
11,CC1=C(C(=O)OC(C)(C)C)C(c2ccc3ccccc3c2)NC(=O)N1C (centres unmarked),-5.24
12,COc1ccc(NC(=O)CN(C)C(=O)CCNS(=O)(=O)c2ccc(Br)cc2)cc1,-22.8
13,CCC1S/C(=N/N=C/c2ccco2)N(Cc2ccccc2)C1=O (centres unmarked),-2.1
14,Cc1ccc(-c2n[nH]c(=S)c3ccccc23)cc1S(=O)(=O)NCC1CCCO1 (centres unmarked),3.73
15,Cc1nn2c(c1-c1ccccc1)N=C(c1ccco1)CC2c1ccccc1 (centres unmarked),7.69
16,Cc1ccc(C(=O)N2CCN(C(=O)c3ccc(C)cc3)C2)cc1,-15.6
17,CN(C)CCCN1C(=O)C(O)=C(C(=O)c2cccs2)C1c1cccc([N+](=O)[O-])c1 (centres unmarked),2.8
18,C=CCNC(=S)N/N=C/c1cn(-c2ccccc2)nc1-c1ccc(OC)cc1,5.28
19,Cc1ccc(NC(=O)Cc2nnc(SCC(=O)c3ccc(Br)cc3)n2C)cc1,-14.3
20,Br.Cc1ccc(Nc2nc(-c3ccc(S(=O)(=O)N4CCCC4)cc3)cs2)cc1C,1.22
